{"source": "the supplement of paper PMC4166925", "note": "± gives the standard deviation of the averaged measurements. The full ranking holds about 33,000 sequences; the median of “E-score (dimensionless, -0.5 to 0.5)” is about -0.046, and the highest 2% start at about 0.36. Some of the results follow.", "data": [{"tested_on": "T1, SpTbr T-box DNA-binding domain (GST fusion)", "T1 sequence": "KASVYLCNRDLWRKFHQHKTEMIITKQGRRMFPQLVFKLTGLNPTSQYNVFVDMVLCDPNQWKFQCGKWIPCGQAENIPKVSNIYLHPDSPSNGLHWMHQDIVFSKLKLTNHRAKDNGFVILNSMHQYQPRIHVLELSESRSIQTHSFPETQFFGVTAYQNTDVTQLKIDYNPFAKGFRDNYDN", "experiment": "PBM E-score of 8-mer (E-score (dimensionless, -0.5 to 0.5)); Tbr is Tbrain of the sea star Patiria miniata (Pm) or the sea urchin Strongylocentrotus purpuratus (Sp); higher = stronger binding preference; most listed sequences are background and not binding sites", "conditions": "the construct has about 5 more residues each side", "method_in_brief": "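Primer extension turned Universal Agilent oligonucleotide arrays double-stranded. They were incubated with 200 nM protein in PBS (pH 7.5); the protein was a GST-fused Tbr T-box DNA-binding domain expressed in BL21 E. coli at 20 °C and purified on glutathione. Every ungapped 8-mer was scored from the scanned, quantified probe intensities, and the Universal PBM Analysis Suite gave each an enrichment E-score averaged over duplicate arrays.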", "values": [{"sequence": "CACTCTTC", "PBM E-score of 8-mer": "0.192 ± 0.046"}, {"sequence": "ATCGGCAT", "PBM E-score of 8-mer": "-0.154 ± 0.045"}, {"sequence": "GTTAATGA", "PBM E-score of 8-mer": "-0.00365 ± 0.018"}, {"sequence": "CGACAGCC", "PBM E-score of 8-mer": "0.105 ± 0.026"}, {"sequence": "AAGACATC", "PBM E-score of 8-mer": "-0.0616 ± 0.014"}, {"sequence": "CACGCAGG", "PBM E-score of 8-mer": "0.155 ± 0.013"}, {"sequence": "ATGATTTC", "PBM E-score of 8-mer": "0.0105 ± 0.063"}, {"sequence": "ATCCTGGA", "PBM E-score of 8-mer": "0.0696 ± 0.045"}, {"sequence": "GGTCCATA", "PBM E-score of 8-mer": "-0.372 ± 0.027"}, {"sequence": "GTGAAACA", "PBM E-score of 8-mer": "0.224 ± 0.0064"}, {"sequence": "CCCCCAGG", "PBM E-score of 8-mer": "-0.215 ± 0.018"}, {"sequence": "CGTAAAAC", "PBM E-score of 8-mer": "-0.0886 ± 0.059"}, {"sequence": "CGACATTA", "PBM E-score of 8-mer": "0.0694 ± 0.045"}, {"sequence": "GTAGCCTA", "PBM E-score of 8-mer": "-0.0225 ± 0.059"}, {"sequence": "GTAGCGAC", "PBM E-score of 8-mer": "0.163 ± 0.005"}, {"sequence": "GCATTGAA", "PBM E-score of 8-mer": "-0.203 ± 0.0013"}, {"sequence": "AGCCAGAC", "PBM E-score of 8-mer": "-0.2804 ± 0.0019"}, {"sequence": "GGCCTAGA", "PBM E-score of 8-mer": "-0.307 ± 0.012"}, {"sequence": "AGGTAGTC", "PBM E-score of 8-mer": "-0.212 ± 0.049"}, {"sequence": "ACTCTGAC", "PBM E-score of 8-mer": "0.074 ± 0.054"}, {"sequence": "ACTCATCG", "PBM E-score of 8-mer": "0.0714 ± 0.043"}, {"sequence": "GACAGGAC", "PBM E-score of 8-mer": "-0.0935 ± 0.012"}, {"sequence": "CGTGTCCC", "PBM E-score of 8-mer": "-0.028 ± 0.1"}, {"sequence": "GGCCAGGA", "PBM E-score of 8-mer": "-0.19 ± 0.028"}, {"sequence": "CATCTTTC", "PBM E-score of 8-mer": "0.0605 ± 0.011"}, {"sequence": "ACACCCAT", "PBM E-score of 8-mer": "0.282 ± 0.0078"}, {"sequence": "GCTAACGA", "PBM E-score of 8-mer": "0.3 ± 0.0067"}, {"sequence": "AACTTACA", "PBM E-score of 8-mer": "0.0779 ± 0.081"}, {"sequence": "CATAAATG", "PBM E-score of 8-mer": "0.0176 ± 0.0079"}, {"sequence": "AAATGTCC", "PBM E-score of 8-mer": "-0.193 ± 0.051"}, {"sequence": "AAATTCCC", "PBM E-score of 8-mer": "-0.179 ± 0.013"}, {"sequence": "AATGGCGT", "PBM E-score of 8-mer": "0.192 ± 0.0042"}, {"sequence": "GCGCTACA", "PBM E-score of 8-mer": "0.0622 ± 0.027"}, {"sequence": "GGGGGATA", "PBM E-score of 8-mer": "0.00562 ± 0.00082"}, {"sequence": "AAGTAAGA", "PBM E-score of 8-mer": "-0.106 ± 0.13"}, {"sequence": "AAGGCACG", "PBM E-score of 8-mer": "-0.0491 ± 0.016"}]}]}
